Out of some 48,000 compounds screened, about 120 (0.25%) were called active. Not shown: some 4% with an inconclusive outcome. The call rests on the fitted dose curve; in most records, active means well fitted activation curve with a large enough effect; inconclusive means small, poorly fitted or top-dose-only effect, or another doubt; inactive means no such curve, though single readings can be large or run the other way. This is one part of the list.

The values below come from PubChem BioAssay AID1508624 (National Center for Advancing Translational Sciences (NCATS), 2021).

The test can be described thus: Primary qHTS for Identification of Small Molecule Activators of Huntingtin-Antisense Promoter Activity. Further: nearly all actives have a fitted effect of over 55% in size. The following applies: HEK293 HTT-AS promoter firefly luciferase reporter (activity 0% = vehicle and -100% = no light), 24 h; series mostly up to 57.5 µM; activity change, positive = activation: at the top concentration. The gist of the method: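 HEK293 cells carrying firefly luciferase reporters were seeded at 2,500 per well in Opti-MEM and cultured for 24 h. They were then treated with compounds at up to 57.5 uM final for 24 h at 37 degrees C before Dual-Glo luminescence readout.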
For orientation: In qHTS, concentration-response curves come from the screen itself.
For `Cc1ccc(Cn2cc(CCC(=O)NC3CCCCC3)c3ccccc32)cc1`, the “activity change, positive = activation” value was inactive: -25.7%.

With `Cc1cc(=O)[nH]c2nnc(SCc3cccc(F)c3)n12`, the “activity change, positive = activation” value was inactive: -11.8%.

For the molecule `CCOC(=O)NNc1nncc2ccccc12`, the “activity change, positive = activation” value is inactive: 7.15%.

In the case of `CCCCCSc1nnc2c(n1)OC(c1ccc(C)s1)N(C(C)=O)c1ccccc1-2` (configuration not stated), the “activity change, positive = activation” value was inactive: -42.6%.

`COc1ccc(S(=O)(=O)NC2(C(F)(F)F)NC(=O)N(CCc3ccccc3)C2=O)cc1` (configuration not stated): the “activity change, positive = activation” value is inactive: -2.09%.

In the case of `COc1ccccc1NC(=O)CN1C(=O)C(c2ccc(F)cc2)=NC1(C)C`, the “activity change, positive = activation” value is inactive: -17.8%.

`Cc1cccc(N2CCN(C(=O)Nc3ccc(F)cc3)CC2C)c1` (configuration not stated): the “activity change, positive = activation” value was inactive: -11.2%.

In the case of `Cc1ccccc1NC(=O)Nc1nnc(N(C)Cc2ccccc2)s1`, the “activity change, positive = activation” value was inactive: -11.9%.

As to `Cc1c(Cl)cccc1N1CC(c2nc3ccccc3n2Cc2ccccc2F)CC1=O` (configuration not stated), the “activity change, positive = activation” value is inactive: -16%.

As to `Cc1cccc(NC(=O)Cn2c(=O)n(Cc3ccc4c(c3)OCO4)c(=O)c3ccccc32)c1`, the “activity change, positive = activation” value is inactive: -27.8%.

As for `CCS(=O)(=O)c1c(Nc2ccc(F)c(Cl)c2)sc(C(=O)c2ccccc2)c1N`, the “activity change, positive = activation” value was inactive: -35.5%.

For the molecule `CCOc1ccc(-c2ccc(NS(=O)(=O)c3cc(C)ccc3OC)cc2)nn1`, the “activity change, positive = activation” value was inactive: -15.3%.

Turning to `Cc1ccc(N2CCN(C(=O)c3nn(C)c4c3CS(=O)(=O)c3ccccc3-4)CC2C)cc1` (configuration not stated), the “activity change, positive = activation” value is inactive: -18.8%.

Consider `COc1ccc(-n2cc3c(c2-c2cccc(Br)c2)c(=O)n(C)c(=O)n3C)cc1OC`, for which the “activity change, positive = activation” value was inactive: -24.1%.

As for `COc1ccc(-c2cc(C(F)(F)F)nc(SCC(=O)NCc3ccc(F)cc3)n2)cc1`, the “activity change, positive = activation” value was inactive: -3.93%.

For `COc1cccc(NC(=O)Cn2c(=O)n(Cc3ccccc3)c(=O)c3c4c(sc32)CN(C(C)=O)CC4)c1`, the “activity change, positive = activation” value is inactive: -21%.

Regarding `COC(=O)c1ccccc1NC(=O)c1nc(SCc2ccccc2C)ncc1Cl`, the “activity change, positive = activation” value was inactive: -0.65%.

As for `Cc1cc(C)cc(C(=O)Nc2ccc(-c3cn4cccnc4n3)cc2)c1`, the “activity change, positive = activation” value is inactive: -22.1%.

Turning to `COc1ccc(N2C(=O)CCSC23C(=O)N(Cc2ccc(F)cc2)c2ccccc23)cc1Cl` (configuration not stated), the “activity change, positive = activation” value is inactive: -43.9%.

With `CCC(C)NC(=O)Cn1cnc2sc(C)c(S(=O)(=O)N3CCN(c4ccccc4OC)CC3)c2c1=O` (configuration not stated), the “activity change, positive = activation” value was inactive: 15.7%.

Take `Cc1c(C(=O)Nc2cccc(Cl)c2)oc2ccc(S(=O)(=O)N3CCOCC3)cc12`: the “activity change, positive = activation” value is inactive: -15.2%.

Regarding `COc1cccc(NC(=O)N2CCC(CN3CCOCC3)CC2)c1`, the “activity change, positive = activation” value is inactive: -12.1%.

Take `CCc1ccccc1NC(=O)Cn1c(=O)ccc2cc(S(=O)(=O)N3CCC(C)CC3)ccc21`: the “activity change, positive = activation” value is inactive: -25.9%.

In the case of `Cc1ccc(CCNC(=O)CN2N=C(c3ccc(C)cc3)CCC2=O)cc1`, the “activity change, positive = activation” value was inactive: -17.8%.

For the molecule `Cc1cccc(N2CCN(S(=O)(=O)c3c(C)nc4scc(C)n4c3=O)CC2C)c1` (configuration not stated), the “activity change, positive = activation” value is inactive: -22%.

`CCOC(=O)c1sc(NC(=O)c2nc3nc(C)cc(C(F)F)n3n2)c(C(=O)OC)c1C`: the “activity change, positive = activation” value is inactive: -2.72%.

Take `CCOc1cccc(C2c3c(oc4cc(C)c(C)cc4c3=O)C(=O)N2c2nc(C)c(C)s2)c1` (configuration not stated): the “activity change, positive = activation” value is inactive: -6.44%.

`Cc1ccc(NC(=O)CN2C(=O)C(C)(C)c3cc(S(=O)(=O)N4CCCCC4)ccc32)c(Br)c1`: the “activity change, positive = activation” value was inactive: -29.8%.

With `Cn1nc(C(=O)Nc2ccccc2C#N)c2c1-c1ccccc1SC2`, the “activity change, positive = activation” value was inactive: -4.79%.

In the case of `Cc1cc(=O)[nH]c(SCC(=O)N2CCN(c3ccccc3)CC2)n1`, the “activity change, positive = activation” value is inactive: -11.7%.

As for `COc1ccc(-c2nc3ccc(C(=O)NCc4ccc(C)cc4)cc3nc2-c2ccc(OC)cc2)cc1`, the “activity change, positive = activation” value is inactive: -8.79%.

Consider `O=C(CC1N=C2c3ccccc3N=C(SCc3ccccc3Cl)N2C1=O)NC1CCCCC1` (configuration not stated), for which the “activity change, positive = activation” value is inactive: -34%.

As for `CC1CCN(S(=O)(=O)c2ccc3c(c2)N(CC(=O)Nc2ccc(F)c(Cl)c2)C(=O)CO3)CC1`, the “activity change, positive = activation” value is inactive: -24.5%.

In the case of `CCC(=O)N1CCc2cc(CNS(=O)(=O)c3cc(Cl)ccc3OC)ccc21`, the “activity change, positive = activation” value was inactive: -18.6%.

`COc1ccc(Br)cc1CNC(=O)CCSCc1ccc(Cl)cc1`: the “activity change, positive = activation” value was inactive: -15.6%.

As for `Cc1nn(CC(=O)N2CCN(c3ccccc3)CC2)c(=O)c2cc3sccc3n12`, the “activity change, positive = activation” value was inactive: -4.51%.

With `Cc1ccc(OCCn2c(COc3ccc(Cl)cc3)nc3ccccc32)cc1`, the “activity change, positive = activation” value was inactive: 14.6%.

With `CCN1CCN(c2cc(C)c3cc(NC(=O)c4cc(OC)cc(OC)c4)ccc3n2)CC1`, the “activity change, positive = activation” value is inactive: 28%.

`CCOc1ccc(NC(=O)c2oc3ccccc3c2NC(=O)C(C)Oc2ccccc2)cc1` (configuration not stated): the “activity change, positive = activation” value is inactive: -16.5%.

Turning to `CCOc1ccc(CNC(=O)c2cccc(Nc3nc4ccccc4n4nnnc34)c2)cc1OC`, the “activity change, positive = activation” value is inactive: -39.9%.

In the case of `Cc1ccc(C)c(CN2C(=O)c3ccccc3S(=O)(=O)c3ccc(C(=O)N4CCN(Cc5ccccc5)CC4)cc32)c1`, the “activity change, positive = activation” value is inactive: 0.212%.

On to `Cc1cccc(C)c1NC(=O)CSc1nccn1C`, for which the “activity change, positive = activation” value is inactive: -6.24%.

`CC(C)Cn1c(SCc2cccc(F)c2)nc2ccsc2c1=O`: the “activity change, positive = activation” value is inactive: -28.3%.

In the case of `O=C(CCn1c(=O)c2cccn2c2cccnc21)NCc1cccc(Br)c1`, the “activity change, positive = activation” value is inactive: -2.56%.

In the case of `CC(=O)c1cc2c(cc1N/C(=N/S(=O)(=O)c1ccc(C)cc1)c1ccc(Cl)cc1)OCO2`, the “activity change, positive = activation” value was inactive: -14.8%.

Consider `Cc1ccc2c(=O)cc(C(=O)Nc3ccc(S(=O)(=O)N4CCCC(C)C4)cc3)oc2c1C` (configuration not stated), for which the “activity change, positive = activation” value was inactive: 4.61%.

`COc1ccc(OC)c(C2CC(=O)Nc3ccc4ccccc4c32)c1` (configuration not stated): the “activity change, positive = activation” value is inactive: -17.1%.
